# The supplement of paper PMC8728848
# The other results are listed elsewhere or left out.
# Experiments:
# Experiment in all cases: glycan array binding signal (z-score within array); higher = stronger binding
# Details in all cases: glycan notation: IUPAC condensed, linker removed
# [1] = target: GalNAc(b1-4)GlcNAc
# Outline: (§1)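 The binding signal is a Z-score computed within each array. Data were drawn from 3228 arrays in the Consortium for Functional Glycomics database, restricted to those with a known protein sequence. Scores were averaged over arrays of the same protein sequence at different concentrations or buffers, and over linkers, and negative values can be taken as non-binding.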
# [2] = target: GalNAc(b1-4)GlcNAc(b1-2)Man
# Outline: as §1
# [3] = target: GalNAc(b1-4)GlcNAc(b1-2)Man(a1-3)[GalNAc(b1-4)GlcNAc(b1-2)Man(a1-6)]Man(b1-4)GlcNAc(b1-4)GlcNAc
# Outline: as §1
# [4] = target: GalNAc(b1-4)GlcNAc(b1-3)GalNAc(b1-4)GlcNAc
# Outline: as §1
# [5] = target: GalNAc(b1-4)GlcNAc6S
# Outline: as §1
# [6] = target: GalNAc(b1-6)GalNAc
# Outline: as §1
# [7] = target: GalNAc3S(b1-4)GlcNAc
# Outline: as §1
# [8] = target: GalNAc3S(b1-4)GlcNAc3S
# Outline: as §1
# [9] = target: GalNAc3S(b1-4)[Fuc(a1-3)]GlcNAc
# Outline: as §1
# [10] = target: GalNAc4S6S(b1-4)GlcNAc
# Outline: as §1
# [11] = target: GalNAc6S(b1-4)GlcNAc
# Outline: as §1
# [12] = target: Glc(a1-4)Glc
# Outline: as §1
# [13] = target: Glc(a1-4)Glc(a1-4)Glc(a1-4)Glc
# Outline: as §1
# [14] = target: Glc(a1-6)Glc(a1-6)Glc
# Outline: as §1
# [15] = target: Glc(a1-6)Glc(a1-6)Glc(a1-6)Glc
# Outline: as §1
# [16] = target: Glc(b1-4)Glc
# Outline: as §1
# [17] = target: Glc(b1-6)Glc
# Outline: as §1
# [18] = target: GlcA(b1-3)Gal
# Outline: as §1
# [19] = target: GlcA(b1-3)GlcNAc
# Outline: as §1
# [20] = target: GlcA(b1-6)Gal
# Outline: as §1
# [21] = target: GlcA3S(b1-3)Gal(b1-4)GlcNAc(b1-2)Man
# Outline: as §1
# [22] = target: GlcA3S(b1-3)Gal(b1-4)GlcNAc(b1-3)Gal(b1-4)Glc
# Outline: as §1
# [23] = target: GlcNAc(a1-3)Gal(b1-4)GlcNAc
# Outline: as §1
# [24] = target: GlcNAc(a1-4)Gal(b1-3)GlcNAc
# Outline: as §1
# [25] = target: GlcNAc(a1-4)Gal(b1-4)GalNAc
# Outline: as §1
# [26] = target: GlcNAc(a1-4)Gal(b1-4)GlcNAc
# Outline: as §1
# [27] = target: GlcNAc(a1-4)Gal(b1-4)GlcNAc(b1-3)Gal(b1-4)Glc
# Outline: as §1
# [28] = target: GlcNAc(a1-4)Gal(b1-4)GlcNAc(b1-3)Gal(b1-4)GlcNAc
# Outline: as §1
# [29] = target: GlcNAc(a1-4)Gal(b1-4)GlcNAc(b1-3)Gal(b1-4)GlcNAc(b1-3)Gal(b1-4)GlcNAc
# Outline: as §1
# [30] = target: GlcNAc(a1-4)Gal(b1-4)GlcNAc(b1-3)Gal(b1-4)[Fuc(a1-3)]GlcNAc(b1-3)Gal(b1-4)[Fuc(a1-3)]GlcNAc
# Outline: as §1
# [31] = target: GlcNAc(a1-6)Gal(b1-4)GlcNAc
# Outline: as §1
# [32] = target: GlcNAc(b1-2)Gal(b1-3)GalNAc
# Outline: as §1
# [33] = target: GlcNAc(b1-2)Man(a1-3)[GlcNAc(b1-2)Man(a1-6)]Man(b1-4)GlcNAc(b1-4)GlcNAc
# Outline: as §1
# [34] = target: GlcNAc(b1-2)Man(a1-3)[GlcNAc(b1-2)Man(a1-6)]Man(b1-4)GlcNAc(b1-4)[Fuc(a1-6)]GlcNAc
# Outline: as §1
# [35] = target: GlcNAc(b1-2)Man(a1-3)[GlcNAc(b1-4)][GlcNAc(b1-2)Man(a1-6)]Man(b1-4)GlcNAc(b1-4)GlcNAc
# Outline: as §1
# [36] = target: GlcNAc(b1-2)Man(a1-3)[GlcNAc(b1-4)][GlcNAc(b1-2)Man(a1-6)]Man(b1-4)GlcNAc(b1-4)[Fuc(a1-6)]GlcNAc
# Outline: as §1
# [37] = target: GlcNAc(b1-2)[GlcNAc(b1-4)]Man(a1-3)[GlcNAc(b1-2)Man(a1-6)]Man(b1-4)GlcNAc(b1-4)GlcNAc
# Outline: as §1
# [38] = target: GlcNAc(b1-2)[GlcNAc(b1-4)]Man(a1-3)[GlcNAc(b1-4)][GlcNAc(b1-2)Man(a1-6)]Man(b1-4)GlcNAc(b1-4)GlcNAc
# Outline: as §1
# [39] = target: GlcNAc(b1-2)[GlcNAc(b1-4)]Man(a1-3)[GlcNAc(b1-4)][GlcNAc(b1-2)[GlcNAc(b1-6)]Man(a1-6)]Man(b1-4)GlcNAc(b1-4)GlcNAc
# Outline: as §1
# [40] = target: GlcNAc(b1-2)[GlcNAc(b1-4)]Man(a1-3)[GlcNAc(b1-4)][GlcNAc(b1-2)[GlcNAc(b1-6)]Man(a1-6)]Man(b1-4)GlcNAc(b1-4)[Fuc(a1-6)]GlcNAc
# Outline: as §1
# [41] = target: GlcNAc(b1-2)[GlcNAc(b1-6)]Man(a1-6)[GlcNAc(b1-2)Man(a1-3)]Man(b1-4)GlcNAc(b1-4)GlcNAc
# Outline: as §1
# [42] = target: GlcNAc(b1-2)[GlcNAc(b1-6)]Man(a1-6)[GlcNAc(b1-2)Man(a1-3)]Man(b1-4)GlcNAc(b1-4)[Fuc(a1-6)]GlcNAc
# Outline: as §1
# [43] = target: GlcNAc(b1-2)[GlcNAc(b1-6)]Man(a1-6)[GlcNAc(b1-4)][GlcNAc(b1-2)Man(a1-3)]Man(b1-4)GlcNAc(b1-4)GlcNAc
# Outline: as §1
# [44] = target: GlcNAc(b1-3)Fuc
# Outline: as §1
# [45] = target: GlcNAc(b1-3)Gal
# Outline: as §1
binder,measurement,setting,value
BTL (Bryothamnion triquetrum) (protein) ADPICGSSGYSCTTPAILTPKSPGSFPSGYSKVIVTGVGGSYSVYIHRPDGFKVYKASEGGCASFGSYSGGGNSEVGKYGSGGTVVAVACK,glycan array binding signal (z-score),[1],-0.193
same,glycan array binding signal (z-score),[2],-0.248
same,glycan array binding signal (z-score),[3],-0.188
same,glycan array binding signal (z-score),[4],-0.255
same,glycan array binding signal (z-score),[5],-0.172
same,glycan array binding signal (z-score),[6],-0.312
same,glycan array binding signal (z-score),[7],-0.119
same,glycan array binding signal (z-score),[8],-0.207
same,glycan array binding signal (z-score),[9],-0.204
same,glycan array binding signal (z-score),[10],-0.129
same,glycan array binding signal (z-score),[11],-0.282
same,glycan array binding signal (z-score),[12],-0.235
same,glycan array binding signal (z-score),[13],-0.182
same,glycan array binding signal (z-score),[14],-0.253
same,glycan array binding signal (z-score),[15],-0.228
same,glycan array binding signal (z-score),[16],-0.303
same,glycan array binding signal (z-score),[17],-0.263
same,glycan array binding signal (z-score),[18],-0.274
same,glycan array binding signal (z-score),[19],-0.195
same,glycan array binding signal (z-score),[20],-0.255
same,glycan array binding signal (z-score),[21],-0.231
same,glycan array binding signal (z-score),[22],-0.238
same,glycan array binding signal (z-score),[23],-0.194
same,glycan array binding signal (z-score),[24],-0.25
same,glycan array binding signal (z-score),[25],-0.231
same,glycan array binding signal (z-score),[26],-0.216
same,glycan array binding signal (z-score),[27],-0.269
same,glycan array binding signal (z-score),[28],-0.246
same,glycan array binding signal (z-score),[29],-0.198
same,glycan array binding signal (z-score),[30],0.249
same,glycan array binding signal (z-score),[31],-0.171
same,glycan array binding signal (z-score),[32],-0.254
same,glycan array binding signal (z-score),[33],-0.045
same,glycan array binding signal (z-score),[34],3.99
same,glycan array binding signal (z-score),[35],-0.276
same,glycan array binding signal (z-score),[36],0.858
same,glycan array binding signal (z-score),[37],-0.218
same,glycan array binding signal (z-score),[38],-0.274
same,glycan array binding signal (z-score),[39],-0.272
same,glycan array binding signal (z-score),[40],0.154
same,glycan array binding signal (z-score),[41],-0.29
same,glycan array binding signal (z-score),[42],4.85
same,glycan array binding signal (z-score),[43],-0.319
same,glycan array binding signal (z-score),[44],-0.172
same,glycan array binding signal (z-score),[45],-0.287
